Source: the RNAGym collection of RNA variant scans (doi:10.1073/pnas.2313332121)
Variants at the background level are over-represented here.

B1: TPR 5TU (parent)
chain: GGAUCUUCUCGAUCUAACAAAAAAGACAAAUCUGCCACAAAGCUUGAGAGCAUCUUCGGAUGCAGAGGCGGCAGCCUUCGGUGGCGCGAUAGCGCCAACGUUCUCAACUAUGACACGCAAAACGCGUGCUCCGUUGAAUGGAGUUUAUCAUG

Variants of: B1
Test: polymerase ribozyme fitness, log enrichment relative to wild type (log ratio); higher = more active; in vitro selection for triplet polymerase activity
How it was run: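 Libraries of mutants in each subunit of a heterodimeric triplet polymerase ribozyme were generated by PCR and transcribed. In triplicate, each went through one in vitro selection round: annealing with biotinylated primer, partner subunit and triplets; frozen incubation at −7 °C; gel excision of extended constructs; streptavidin-bead capture; RT-PCR. Fitness, taken from Illumina sequencing of input and output libraries, is the logarithm of a genotype's enrichment over wild-type enrichment, averaged across replicates with inverse-variance weights. The logarithm is base 2, and genotypes needed ≥10 input reads and ≥1 read per output to be kept.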

Polymerase ribozyme fitness (log ratio), ≤ -4.2:
GGAUCUUCUCGAUCUAACAAAAAAGACAAAUCUGCCACAAAGCUUGAGACCGUCUUCAGAUGCAGAGGCGGCAGCCUUCGGAGGCGCGAUAGCGCUAACGUUCUCAACUAUGACACGCAAAACGCGUGCUCCGUUGAAUGCAGUUUAUCAUG [G50C A52G G58A U82A C96U G141C]
GGAUCUUCUCGAUCUAACAAAAAAGACAAAUCUGCCACAAAGCUUGAGACCAUCUUCGGAUGCAGUGGCGGCAGCCUUCGGUGGCGCGAUAGCGCCAACGUUCUCAACUAUGACACGCAAAACGCGUGCUCCGUUGAAUGGAGUUUAUCAUG [G50C A66U]
GGAUCUUCUCGAUCUAACAAAAAAGACAAAUCUGCCACAAAGCUUGAGACCAUCUUCGGAUGCAGCGGCGGCAGCCUUCGGGGGCCCGAUAGCGCCAACGUUCUCAACUAUGAAACGCAAAACGCGUGCUCCGUUGCUUGGAGUUUAUCAUG [G50C A66C U82G G86C C114A A137C A138U]
GGAUCUUCUCGAUCUAACAAAAAAGACAAAUCUGCCACAAAGCUUGAGACCAUCUUUGGAUGCAGAGGCGGCAGCUUUCGGUUGCGCGAUAGCGCCAACGUUCUCAACUAUGACACGCAAAACGCGUGCUCCGUUGAAUGGAGUUUAUCAUG [G50C C57U C76U G83U]
GGAUCUUCUCGAUCUAACAAAAAAGACAAAUCUGCCACAAAGCUUGAGACCAUCUUCGGAUGCAGAGGCGGCAGCCUUCGGUGGCGGGAUAGCGCCAACGUUCUCAACUAUGACACGCAAUACGCGUGCUCCGUUGAAUGGAGUUUAUCAUG [G50C C87G A121U]
GGAUCUUCUCGAUCUAACAAAAAAGACAAAUCUGCCACAAAGCUUGAGAACAUCUCCGGAUGCAGAGGCGGCAGCCUUCGGUGGCGCGAUACCGCCAACGUUCUCCACUAUGACACGCAGAACGCGUGCUCCGUUGAAUGGAGUUUAUCAUG [G50A U56C G92C A106C A120G]
GGAUCUUCUCGAUCUAACAAAAAAGACAAAUCUGCCACAAAGCUUGAGACCAUUUUCGGAUGCAGAGGCGGCAGCCUUCGAUGGCGCCAUAGCGCCAACGUUCACAAGUAUGACACGCAAAACGCGUGCUCCGUUGAAUGAAGUUUAUCAUG [G50C C54U G81A G88C U104A C108G G141A]
GGAUCUUCUCGAUCUAACAAAAAAGACAAAUCUGCCACAAAGCUUGAGACCAUCUUCGGAUGCAGAGGCGGCAGGCUUCGGUGCCGCGAUAGCGCCAACGUUCUCAACUAUGACACGCAAAACGCGUACUCCGUUGAAUGGAGUUUAUCAUG [G50C C75G G84C G128A]
GGAUCUUCUCGAUCUAACAAAAAAGACAAAUCUGCCACAAAGCUUGAGAACAUCUUCGGAUGCAGAGGCGGCAGCCUUCGGUGGCGCGAUAGCGCCAACGGUCUCGACUAUGACACGCAAAACGCGUGCUCCGUUGAAUGGAGUUCACCAUG [G50A U101G A106G U146C U148C]
GGAUCUUCUCGAUCUAACAAAAAAGACAAAUCUGCCACAAAGCUUGAGACCAUCUUCGGCUGCAGAGGCGUCAGCCUUCGGUGGCGCGAUAGCGCGAACGUUCUCAACUAUGACACGCAAAACGCGUGCUCCGUUGAAUGGAGUUUAUCAUA [G50C A60C G71U C96G G152A]
GGAUCUUCUCGAUCUAACAAAAAAGACAAAUCUGCCACAAAGCUUGAGACCAUCUUCGGAUGCAGAGGCGGCAGCCUUCGGUGGCGCGGUAGCGCCAACGUUCUCAACUGUGACACGCAAUACGCGUGCUCCGUUGAAUGGAGUUUAUCAUG [G50C A89G A110G A121U]
GGAUCUUCUCGAUCUAACAAAAAAGACAAAUCUGCCACAAAGCUUGAGACCAUCUUCGGAUGCAGAGGCGGAAGCCUUCGGUGGCGCGAUAGCGCCAACGUUCUCAACUAUGAUACGCAAAACGCGUGCUCCGGUGAAUGGAGUUUAACAUG [G50C C72A C114U U134G U148A]
GGAUCUUCUCGAUCUAACAAAAAAGACAAAUCUGCCACAAAGCUUGAGACCAUCUUCGGAUGCAGAGGCGGCAGCCUUCGGUGGCGCGAUAGCGCCAACGUUCUCAACUAUGACACGCAAAACGCGUGCUCCGUUGGAUGGAGUUGAACAUG [G50C A137G U146G U148A]
GGAUCUUCUCGAUCUAACAAAAAAGACAAAUCUGCCACAAAGCUUGAGACCAUGUUCAGAUGCUGCGUCGGCAGCCUUCGGUGGCGCGAUCGCGCCAACGUUCUCAACUAUGACACGCAAAACGCGUGCUCCGUUGAAUGGAGUUUAUCAUG [G50C C54G G58A A64U A66C G68U A91C]
GGAUCUUCUCGAUCUAACAAAAAAGACAAAUCUGCCACAAAGCUUGAGACCAUCUUCGGAUGCAGAGGCGGCAGCCUUCGGUGGCGCGAUAGCGCCUUCGUUCUCAACUAUGACACGCAAAACGCGUGCUCCGUUGGAUGGAGUUUAUCAUG [G50C A97U A98U A137G]
GGAUCUUCUCGAUCUAACAAAAAAGACAAAUCUGCCACAAAGCUUGAGAACAUCUGCGGAUGCAGAGGCGGCAGCCUUCGGUUGCGCGAUAGCGCCAACGUUCUCAACUAUGUCACGCAAAACGCGUGCUCCGUUGAAUGGCGUUUAUCAUG [G50A U56G G83U A113U A142C]
GGAUCUUCUCGAUCUAACAAAAAAGACAAAUCUGCCACAAAGCUUGAGAACAUCUUCGGAUGCAGAGGCGGCAGCCUCCGGUGGCGCGAUAGCGUCAACGUUCUGAACUAUGACACGCAAAACGCGUGCUCCGUUGAAUGGAGUUGAUCAUG [G50A U78C C95U C105G U146G]
GGAUCUUCUCGAUCUAACAAAAAAGACAAAUCUGCCACAAAGCUUGAGACCGUCUUCGGAUGCAGAGGCGGCAGCCUUCGGUGGCGCUAUUGCGCCAACGUCCUCAACUAUGACACGCAAAACGCGUGCUCCAUUGAAUGGAGUUUAUCAUG [G50C A52G G88U A91U U102C G133A]
GGAUCUUCUCGAUCUAACAAAAAAGACAAAUCUGCCACAAAGCUUGAGACCAUCUUCGGAUGCAGAGGCGGCAGCCUUCGGUGGCGCGAUCGCGCCAAAGUUCUCAACUAUGACACGAAAAACGCGUGCUCCGUUGAAUGGAAUUUAUCAUG [G50C A91C C99A C118A G143A]
